Laboratory results: the supplement of paper PMC3334620
In all, about 33,000 sequences were measured (“E-score (-0.5 to 0.5)”: median about -0.013, highest 2% from about 0.3 on). The list shows a part of the results.

Biological target: T1, Msn1 (UniProt P22148)
T1 sequence: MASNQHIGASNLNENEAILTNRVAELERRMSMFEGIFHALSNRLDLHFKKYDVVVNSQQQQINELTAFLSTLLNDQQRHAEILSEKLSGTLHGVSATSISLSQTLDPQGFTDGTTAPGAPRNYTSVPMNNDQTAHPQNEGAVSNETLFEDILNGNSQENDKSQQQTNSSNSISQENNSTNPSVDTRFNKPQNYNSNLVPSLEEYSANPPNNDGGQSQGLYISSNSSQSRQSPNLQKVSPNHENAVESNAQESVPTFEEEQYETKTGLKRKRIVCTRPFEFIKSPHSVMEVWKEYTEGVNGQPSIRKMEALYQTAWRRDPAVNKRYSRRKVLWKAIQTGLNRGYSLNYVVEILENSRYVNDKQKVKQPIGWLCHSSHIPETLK
Assay: PBM E-score (8-mer binding enrichment) (E-score (-0.5 to 0.5)); higher = stronger / more preferred TF binding; most listed sequences are background and not binding sites
Details: protein concentration: 200 nM; construct: GST-full length
How it was run: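 The E-score, a modified Wilcoxon-Mann-Whitney statistic, was computed by the Universal PBM Analysis Suite for every ungapped eight-base word pooled with its reverse complement. Scans behind it were normalised with masliner after bound GST-tagged yeast transcription factors were detected with fluorescent anti-GST. The proteins, at about 100-200 nM, had been applied to universal all-10-mer Agilent arrays made double-stranded by primer extension.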

Sequence	PBM E-score
CTTAGACC	-0.0214
ACCGGCAC	0.0381
ACAGTGAG	-0.0223
CCTTCCAC	-0.276
AATTACCT	0.0704
GGGCATTA	-0.106
CTTAGCTC	-0.26
GCTCACTA	-0.0756
AAAATCTT	0.0233
AGAGGGAG	-0.29
GGCTAGCC	-0.167
AGTTAACG	0.0384
ACGGGCTG	-0.11
TGACCCCA	-0.176
CAGTCTAA	0.102
TCGGTAGA	0.153
CAGGAAGG	-0.156
CTTCCATA	-0.0492
CAGGTAGA	-0.142
ACCCCAGT	-0.138
AGATGATG	-0.0445
GTCGTTTA	0.121
GGGGGGCA	-0.415
GGCCGTTA	-0.0233
TAGATTAA	0.137

Sequence	PBM E-score
CCTTCGAA	-0.0899
CGAGCGTC	-0.232
CCCGGCTC	-0.169
AGACTCTA	-0.145
CCCCTGTA	-0.164
CAATCAAA	0.0568
AACAATCC	0.136
ACACTAAT	0.154
CGGCTGTC	-0.0733
CCTTGTAA	0.147
CCGCCCGC	-0.164
ATTATTGC	0.243
GATCAGAC	-0.195
AAGCCTCG	-0.113
CCAAACAA	0.0977
ACACCATG	-0.0462
AGTTGTGA	0.137
AATACGGC	0.0768
ACGAATAC	0.0997
GGAAACAA	-0.136
GAGATATA	0.0973
ATTCCTTC	0.0265
CACGTCGC	-0.0945
GCAGGAGC	-0.26
ATCCACAA	0.0306

Sequence	PBM E-score
ACGGCAGT	-0.121
CACACTCG	0.0822
CAGCTGAC	0.0407
CTATCGGC	-0.00405
CGTTGTGC	0.114
AAGGCGAC	-0.115
TGTACGAA	0.171
CCGCGCGA	0.126
GTTATATA	0.11
CTCGAGAC	0.179
ATCAACTC	0.0974
AGTACGAT	0.0546
CGGGGCGA	0.0275
AACCCAAG	-0.0418
CAGTAGGC	-0.216
AAGCGGCA	0.0195
GAAGCAAA	0.0838
AAGTTGCA	-0.00524
CTTCCGAC	0.11
GGGGCCCC	-0.264
GTTTCGTA	0.0844
ACGCCAGT	-0.218
ACCAACTC	0.0532
CCAGAAAC	-0.0853
AGTCTAAA	0.0711

Sequence	PBM E-score
CTTATACC	0.102
CACTTAAC	-0.0864
GTACGTTA	0.0833
ACCTCCGT	-0.0463
CACGGCAC	-0.0714
GGGTCTTA	-0.0158
ACAATCAG	0.132
CTTGTGGC	-0.0885
ATTATAAT	0.307
ACTTCGGC	0.126
GCGATCGA	0.0833
ATCAAACG	-0.0179
ATCCCGAT	0.125
GCTAATTA	-0.00217
ATTGAAAA	0.266
CAGATTCA	-0.223
ACCCTTCC	-0.253
GTGGTAAA	0.157
GATTCTGC	0.114
CCAACTAA	0.0228
AAAAACTC	-0.0111
CCAGAATA	0.122
AACATCTA	-0.0396
ACCGTGCA	-0.0617
CCACTTCA	-0.141

Sequence	PBM E-score
CACGGTCC	-0.411
ATTACTGC	0.0705
AGCTCCCA	-0.233
GTAGAGAA	0.0676
ACGCCCAT	-0.00159
CATCAGAC	-0.0545
CACTATTA	0.0994
CGTTAGGA	0.079
CGGTTTAA	0.122
CCATGAGG	-0.267
GCAGAAAA	0.133
CGATATTA	0.249
ACCCATGG	-0.121
CTTTAGCA	-0.107
CGGAAGAC	0.0626
AAGTTGGA	0.067
ACATGTGG	0.228
GCCTTAAA	0.00041
CGCGGCCC	-0.0805
GAGCTGAC	0.0216
CTTTCATC	-0.145
TCATACGA	0.0671
ATAGCGGA	-0.0587
GGACAATA	0.464
CTAGCTTA	-0.0475

Sequence	PBM E-score
AGCGGAAC	-0.091
GACAGCGC	0.102
CCTTGCCG	-0.0395
ACTCGAGG	0.0141
AGAAAAAT	0.163
AGCAGTGG	-0.317
AGGTCTGA	0.0482
TTATCCAA	0.274
GACGGAAC	0.0588
AACGCCGA	0.148
CTGCGACC	-0.19
AGAATTGA	-0.0723
GTTAGTGA	-0.0121
AAAGTCGG	0.2
ACGTGTGC	-0.198
GTTGTATA	0.158
AAGTAGCT	-0.141
AAGAGGCA	-0.119
AATGATCC	-0.0123
AGAACAAG	0.151
CCAAGCAA	-0.0576
AGTTAGAG	-0.168
CTGTTTCC	-0.134
CACGTGCC	-0.0225
AAAAATGT	0.335

Sequence	PBM E-score
AGACTCTG	-0.103
CCTGTAAC	-0.106
GCCATAGC	-0.085
AAATCATC	-0.0175
AGGAAATC	0.0408
CCACAAAA	0.0569
ACGTTGCG	-0.0244
CCCAACAC	-0.252
CACTATGA	-0.111
ACTATAAT	0.0935
CTCAACAG	-0.0898
GCTAAATA	-0.0248
CTATCTTA	0.113
CAAATGTA	0.276
CCGGGTGC	-0.176
GGAGTTAC	-0.0427
CCGACCCG	0.0123
GACGATTA	0.22
GAAGACGC	-0.0962
CACCCCGG	-0.131
AATCACAC	0.0772
AGGTTACT	0.116
